In article PMC4336329 (PLoS ONE, 2015):
In all, about 310,000 compounds went through this assay and about 2,200 (0.71%) showed an effect of 50% or more. The effect is printed as a negative number. Some of the results follow.

Target: human ether-à-go-go-related gene (hERG) potassium channel (human, UniProt Q12809)
Assay: primary screen, population patch clamp on CHO cells stably expressing hERG

Sequence of human ether-à-go-go-related gene (hERG) potassium channel (Q12809 whole entry, looked up): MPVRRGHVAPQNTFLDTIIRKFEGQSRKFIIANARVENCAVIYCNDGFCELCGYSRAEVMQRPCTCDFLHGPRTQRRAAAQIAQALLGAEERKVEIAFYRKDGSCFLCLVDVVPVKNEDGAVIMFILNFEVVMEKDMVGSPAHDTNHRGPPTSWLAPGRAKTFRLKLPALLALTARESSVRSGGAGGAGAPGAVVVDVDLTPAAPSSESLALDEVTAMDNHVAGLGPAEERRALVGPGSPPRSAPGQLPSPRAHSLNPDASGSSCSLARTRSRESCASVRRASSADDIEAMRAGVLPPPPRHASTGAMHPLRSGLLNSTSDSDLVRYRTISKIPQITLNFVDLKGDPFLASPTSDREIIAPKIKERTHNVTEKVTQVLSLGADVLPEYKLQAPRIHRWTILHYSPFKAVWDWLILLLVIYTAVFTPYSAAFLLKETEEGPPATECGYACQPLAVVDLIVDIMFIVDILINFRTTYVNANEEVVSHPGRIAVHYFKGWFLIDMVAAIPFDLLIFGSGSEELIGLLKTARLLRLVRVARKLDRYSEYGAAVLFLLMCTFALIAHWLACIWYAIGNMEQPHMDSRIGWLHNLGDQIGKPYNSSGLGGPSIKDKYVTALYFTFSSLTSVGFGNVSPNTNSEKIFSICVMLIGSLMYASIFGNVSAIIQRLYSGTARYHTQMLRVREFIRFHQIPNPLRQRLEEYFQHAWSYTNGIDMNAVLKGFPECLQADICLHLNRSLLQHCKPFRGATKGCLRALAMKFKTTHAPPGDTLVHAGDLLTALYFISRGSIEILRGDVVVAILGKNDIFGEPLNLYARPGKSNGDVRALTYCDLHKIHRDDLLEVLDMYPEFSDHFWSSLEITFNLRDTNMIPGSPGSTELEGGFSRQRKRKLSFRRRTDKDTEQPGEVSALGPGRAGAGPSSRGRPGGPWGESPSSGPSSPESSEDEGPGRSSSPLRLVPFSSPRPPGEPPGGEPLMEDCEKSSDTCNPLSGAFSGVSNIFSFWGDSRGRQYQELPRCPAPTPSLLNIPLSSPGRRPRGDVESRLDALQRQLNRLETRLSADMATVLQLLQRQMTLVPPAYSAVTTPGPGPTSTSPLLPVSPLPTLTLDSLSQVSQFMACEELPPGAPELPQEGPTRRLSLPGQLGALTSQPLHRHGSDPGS

Row | Compound | hERG current change (%, negative = inhibition) at 1uM
1 | CCCNC(=O)c1ccc(Cn2cc(-c3ccc(OC)cc3)nc2C(C)N)cc1 (centres unmarked) | 13.5%
2 | CCCn1cccc(C(=O)Nc2ccc(OC)cc2)c1=O | 2.25%
3 | COc1ccc(NC(=O)CN2CCC(C)CC2)c([N+](=O)[O-])c1 | 1.92%
4 | CC(C)C(=O)N1CC(=O)Nc2ccc(F)cc2C1c1ccc(F)cc1 (centres unmarked) | 4.63%
5 | O=C(NCCNC(=O)c1cnccn1)c1ccc(Cl)cc1 | 0.0873%
6 | COc1cccc(C(=O)CSc2nnc(-c3cccs3)o2)c1 | 3.99%
7 | COC(=O)C1=C(C)NC2=C(C(=O)CCC2)C1c1coc2ccccc2c1=O (centres unmarked) | 5.33%
8 | CCc1ccc(C2=C/C(=C/c3cccnc3)C(=O)O2)cc1 | 9.95%
9 | Cc1ccccc1NC(=O)Nc1nnc(Cc2ccc([N+](=O)[O-])cc2)s1 | 4.28%
10 | O=C(CSc1ccc2nnc(-c3ccccn3)n2n1)Nc1ccccc1C(F)(F)F | -3.76%
11 | Cc1ccc(-c2noc(-c3ccccc3F)n2)cc1 | 16.3%
12 | CCCCN1C2CCCC1CC(NC(=O)c1cccc(Cl)c1)C2 (centres unmarked) | -63%
13 | O=C(CN1C(=O)NC2(CCCC2)C1=O)OCc1c(F)cccc1Cl | 11.9%
14 | CCN(CC)C(=O)N1CCN(S(=O)(=O)c2ccc(C)cc2)CC1 | -12.5%
15 | O=C(c1ccc(F)c([N+](=O)[O-])c1)N1CC2CC(C1)c1cccc(=O)n1C2 (centres unmarked) | 14%
16 | CC(C)[C@H]1CN(C)CCN1Cc1cn(C)nc1-c1cccc(Cl)c1 | 12.3%
17 | O=[N+]([O-])c1ccc(N2CCOCC2)c(S(=O)(=O)N2CCOCC2)c1 | 3.84%
18 | O=C1N/C(=N/N=C/c2ccccc2O)SC1Cc1ccc(F)cc1 (centres unmarked) | 16.3%
19 | O=C(O)CCN1C(=O)c2ccc(NC(=O)CSc3ccc(Cl)cc3)cc2C1=O | 15.8%
20 | C=CCNC(=O)c1c[nH]c2ccc(S(=O)(=O)N(C)c3ccc(OCC)cc3)cc2c1=O | 11.9%
21 | CC(C)N(CCNC(=O)C1CCCN(c2ncnc3c2nc2n3CCCCC2)C1)Cc1ccccc1 (centres unmarked) | 2.71%
22 | Cc1cn(S(=O)(=O)c2ccc(Cl)cc2)c(C)n1 | -2.82%

Row | Compound | hERG current change (%, negative = inhibition) at 1uM
23 | Cc1noc(C)c1CSc1nnc(-c2ccccc2)o1 | 14.1%
24 | O=S(=O)(c1ccc(OCC(O)CNC23CC4CC(CC(C4)C2)C3)c(Cl)c1)N1CCOCC1 (centres unmarked) | 20%
25 | CCOC(=O)c1[nH]c(C)c(C(=O)OCc2c(C)noc2C)c1C | -0.753%
26 | CC1CC(C)CN(C(=O)c2cccc(S(=O)(=O)Nc3cc(C(F)(F)F)ccc3Cl)c2)C1 (centres unmarked) | -0.559%
27 | CC(=O)c1ccc(S(=O)(=O)Nc2ccc(N3CCOCC3)cc2)cc1 | 5.7%
28 | COc1ccc(S(=O)(=O)N2CCOC2CNC(=O)C(=O)NCCN2CCOCC2)cc1C (centres unmarked) | 1.23%
29 | O=C(CNc1ccc2ccccc2c1)N/N=C/c1ccccn1 | 5.33%
30 | CCOC(=O)CNC(=O)c1cn(CC)c(=O)c2cc(OC)c(OC)cc12 | 11.6%
31 | Cc1cc(C)n2c3c(c(C#N)c2n1)CCCC3 | 12.4%
32 | Nc1c(C=C2C=CC(=O)C=C2)c(=O)nc2snc(SCc3ccccc3)n12 | 11.4%
33 | O=[N+]([O-])c1ccccc1S(=O)(=O)Nc1ccc(S(=O)(=O)N2CCOCC2)cc1 | 15.9%
34 | O=C(NNc1ccc(F)cc1)c1c(F)cccc1Cl | 10.5%
35 | COc1ccccc1N1CCN(C(=O)C2CCCN(c3ncnc4c3nc3n4CCCCC3)C2)CC1 (centres unmarked) | 3.38%
36 | O=C(/C=C/c1ccccc1)N(c1ccccn1)C1CCCCC1 | 3.14%
37 | CC(C)(C)c1ccc(/C=C2\Oc3c(ccc(O)c3CN3CCN(CCO)CC3)C2=O)cc1 | 12%
38 | Cc1ccc(N2CCN(/N=C/c3sccc3C)CC2)cc1 | -1.94%
39 | CCc1ccc(NC(=O)C[n+]2cc(-c3ccc(C)cc3)n3c2CCC3)cc1.[Cl-] | -3.65%
40 | Cc1cccc(NC(=O)COC(=O)c2ccc3c(=O)n4c(nc3c2)CCC4)c1 | 4.92%
41 | CC(C)(C)n1ncc2c(=O)n(CC(=O)NCc3ccccc3Cl)cnc21 | 16.5%
42 | Cc1nnc(SCC(=O)Nc2nc(C(C)(C)C)cs2)s1 | -16.9%
43 | CCOc1ccc(S(=O)(=O)n2cc(F)c(=O)[nH]c2=O)cc1[N+](=O)[O-] | 16.9%
44 | CCCCCCCC(=O)NNC(=O)c1ccc(F)cc1 | -9%

Row | Compound | hERG current change (%, negative = inhibition) at 1uM
45 | COCCNc1oc(-c2ccc(C)cc2)nc1C#N | 12.3%
46 | CN(C)c1cccc(C(=O)n2cc(C(=O)c3cc(F)ccc3O)cn2)c1 | 14.2%
47 | CCOC(=O)c1cnc(-n2nc(C)cc2C)nc1N(CC)CC | -17.6%
48 | COc1ccc(CCN(C)CCC(=O)Nc2cc(C)ccc2C)cc1OC | -21.1%
49 | CCN1C(=O)C(CC(=O)Nc2ccc(OC)cc2)N(Cc2ccc(OC)c(OC)c2)C1=S (centres unmarked) | 10.8%
50 | Cc1ccc2c(c1)C1CN(C)CCC1N2C(=S)Nc1ccc(OC(F)F)cc1 (centres unmarked) | -9.68%
51 | COc1ccc([C@@H]2[C@@H]3C(=O)N(C(C)(C)C)C(=O)[C@@H]3[C@]3(Cc4ccccc4)C(=O)N(c4ccccc4)C(=O)N23)cc1 | 0.0887%
52 | CCOC(=O)c1cccc2c(=O)c(C(=O)c3ccc(Cl)cc3)c(C(=O)OC)[nH]c12 | 11.9%
53 | COc1ccc(CN(CC(=O)NCC2CCCO2)C(=O)CNS(=O)(=O)c2ccc(C)cc2)cc1 (centres unmarked) | 7.64%
54 | COc1ccc(/C=C/c2c([N+](=O)[O-])c(=O)n(C)c(=O)n2C)c(OC)c1 | 2.15%
55 | N#Cc1ccc(Cl)cc1NC(=O)COC(=O)[C@H](CCC(N)=O)NC(=O)c1ccc(F)cc1 | 7.69%
56 | Cc1ccc(C(=O)c2c[nH]c3c(F)cc(F)cc3c2=O)cc1 | 2.64%
57 | Fc1ccc2nc3[nH]c4ccccc4c3nc2c1 | 7.53%
58 | O=S(=O)(c1ccc(N2CCN(S(=O)(=O)c3ccccc3)CC2)nc1)N1CCCC1 | 12.9%
59 | Cc1cccc(CS(=O)(=O)Cc2ccc(C(=O)NCc3cccs3)o2)c1 | -11.6%
60 | COc1ccc(C2CC(=O)C3=C(C2)Nc2ccccc2N(C(=O)CCC(=O)O)C3c2ccc(F)cc2)cc1 (centres unmarked) | 2.41%
61 | Cc1ccc(Cn2nnc(C(=O)Nc3cccc(C)c3C)c2N)cc1 | 4.7%
62 | Cc1ccnc(NC(=O)CN(C)S(=O)(=O)c2cccc3nsnc23)c1 | 10.2%
63 | CCOC(=O)COn1c(=O)c(-c2ccccc2)[n+]([O-])c2ccccc21 | 4.04%
64 | Cc1ccccc1OCC(=O)OC1CCN(C)CC1.Cl | 4.9%
65 | Cc1cccnc1NC(=O)Nc1ccccc1 | 12.1%
66 | Cc1ccc(S(=O)(=O)C2(S(=O)(=O)c3ccc(C)cc3)CCCC2)cc1 | -10.6%

Row | Compound | hERG current change (%, negative = inhibition) at 1uM
67 | Cc1nc(N)nc(COc2ccccc2)n1 | 11.1%
68 | COC(=O)c1c(NC(=O)c2ccccc2)sc2c1CC(C)(C)NC2(C)C | 6.12%
69 | O=C1N/C(=C/c2ccc(Br)s2)C(=O)N1c1ccccc1 | 18.9%
70 | CN(CCc1ccccn1)S(=O)(=O)c1ccc(F)cc1 | 7.67%
71 | CC(=O)c1ccc(S(=O)(=O)NCCC(=O)OC(C)C(=O)Nc2ccc(F)cc2)cc1 (centres unmarked) | 8.18%
72 | Cc1cc(C(=O)COC(=O)c2ccc[nH]c2=O)c(C)n1-c1ccccc1F | 1.72%
73 | COc1ccc([N+](=O)[O-])cc1NC(=O)COC(=O)/C=C/c1ccco1 | 6.21%
74 | O=C(c1n[nH]c2c1CCC2)N1CCCC(Nc2cccc(F)c2)C1 (centres unmarked) | -3.65%
75 | COC(=O)C(Cc1ccccc1)NC(=O)COc1ccc(C(C)(C)C)cc1 (centres unmarked) | 3.8%
76 | Cc1ccc(C(=O)NNC(=O)c2cc3ccccc3cc2O)cc1 | 11.4%
77 | CCOc1nc(C)ccc1-c1noc(-c2ccccc2OC)n1 | 15.9%
78 | CCOc1ccc(NC(=O)C2CCCN(S(=O)(=O)c3ccc4c(c3)CC(C)N4C(C)=O)C2)cc1 (centres unmarked) | 17.8%
79 | Cc1cc(OCC(=O)N[C@@H](Cc2ccccc2)C(=O)O)c2c3c(c(=O)oc2c1)CCC3 | 2.6%
80 | O=C(NCC1CCCN1S(=O)(=O)c1cccs1)c1cccc(Cl)c1 (centres unmarked) | 11.3%
81 | COc1cccc(C(=O)NCC(c2ccc3c(c2)OCO3)N2CCN(c3ccc(F)cc3)CC2)c1 (centres unmarked) | 4.47%
82 | CC(=O)Nc1nc2cc3c(cc2s1)OCO3 | 10.7%
83 | COc1ccc(-c2nc(CS(=O)CC(=O)NCc3ccco3)c(C)o2)cc1 (centres unmarked) | -1.89%
84 | CC1CCCN(c2ccc(N)cc2C(N)=O)C1 (centres unmarked) | -1.18%
85 | C=C(C)Cn1c(N2CCCC2)nc2c1c(=O)[nH]c(=O)n2C | 11%
86 | COc1ccc(-c2cc(-c3ccc(OC)cc3)[nH]n2)cc1 | 9.42%
